The list shows a part of the results. Repeats are few or missing, and single values can be far off.
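Also: cells treated in 1,536-well plates, then fixed and DAPI-stained, with nuclei counted from automated high-throughput microscope images.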

The first test relates to SkMel28. Description: cell count relative to DMSO control; melanoma cells; higher = more viable cells. The note with it: library dose: standard library concentration; 72 h.
Regarding `N#CC[C@H](C1CCCC1)n1cc(-c2ncnc3[nH]ccc23)cn1` [ruxolitinib] + Cc1ccc(NC(=O)c2cccc(N(C)C)c2)cc1NC(=O)c1ccc(O)cc1 [ZM336372] (first compound 5 µM, partner dose 10 µM), the cell count was determined as 96.7%.

In the case of `Cc1cc(Nc2cc(N3CCN(C)CC3)nc(Sc3ccc(NC(=O)C4CC4)cc3)n2)n[nH]1` [Tozasertib] + CO[C@@H]1[C@H](N(C)C(=O)c2ccccc2)C[C@H]2O[C@]1(C)n1c3ccccc3c3c4c(c5c6ccccc6n2c5c31)C(=O)NC4 [Midostaurin] (first compound 0.03 µM, partner dose 0.4 µM), the cell count is 86%.

As to `N#CC[C@H](C1CCCC1)n1cc(-c2ncnc3[nH]ccc23)cn1` [ruxolitinib] + COc1cc(Nc2ncc(F)c(Nc3ccc4c(n3)NC(=O)C(C)(C)O4)n2)cc(OC)c1OC [Tamatinib] (first compound 5 µM, partner dose 2 µM), the cell count was determined as 69.2%.

Compound `Cc1cc(Nc2cc(N3CCN(C)CC3)nc(Sc3ccc(NC(=O)C4CC4)cc3)n2)n[nH]1` [Tozasertib] + O=C(O)c1ccc(-c2c[nH]c3ncc(-c4ccccc4)cc23)cc1C1CCCC1 [GSK650394] (first compound 0.03 µM, partner dose 0.8 µM) came in with a cell count of 48.1%.

On to `Cc1cc(Nc2cc(N3CCN(C)CC3)nc(Sc3ccc(NC(=O)C4CC4)cc3)n2)n[nH]1` [Tozasertib] + COc1cc(Nc2ncc(F)c(Nc3ccc4c(n3)NC(=O)C(C)(C)O4)n2)cc(OC)c1OC [Tamatinib] (first compound 0.03 µM, partner dose 2 µM), for which the cell count came out at 65.3%.

Take `Cc1cc(Nc2cc(N3CCN(C)CC3)nc(Sc3ccc(NC(=O)C4CC4)cc3)n2)n[nH]1` [Tozasertib] + Cn1cncc1[C@@](N)(c1ccc(Cl)cc1)c1ccc2c(c1)c(-c1cccc(Cl)c1)cc(=O)n2C [tipifarnib] (first compound 0.03 µM, partner dose 0.05 µM): the cell count was 86%.

`CC[C@]1(O)C[C@H]2CN(CCc3c([nH]c4ccccc34)[C@@](C(=O)OC)(c3cc4c(cc3OC)N(C=O)[C@H]3[C@@](O)(C(=O)OC)[C@H](OC(C)=O)[C@]5(CC)C=CCN6CC[C@]43[C@@H]65)C2)C1` [vincristine] + NC(=O)Nc1cc(-c2cccc(F)c2)sc1C(=O)N[C@H]1CCCNC1 [AZD7762] (first compound 0.0005 µM, partner dose 0.1 µM) registered a cell count of 41.7%.

`Cc1cc(Nc2cc(N3CCN(C)CC3)nc(Sc3ccc(NC(=O)C4CC4)cc3)n2)n[nH]1` [Tozasertib] + CN(C)S(=O)(=O)c1ccc2c(c1)/C(=C/c1cc3c([nH]1)CCCC3)C(=O)N2 [SU6656] (first compound 0.03 µM, partner dose 2 µM) showed a cell count of 45.9%.

Regarding `N#CC[C@H](C1CCCC1)n1cc(-c2ncnc3[nH]ccc23)cn1` [ruxolitinib] + COc1cc2c(Oc3ccc4[nH]c(C)cc4c3F)ncnc2cc1OCCCN1CCCC1 [cediranib] (first compound 5 µM, partner dose 2 µM), the cell count is 168%.

For the compound `CC[C@]1(O)C[C@H]2CN(CCc3c([nH]c4ccccc34)[C@@](C(=O)OC)(c3cc4c(cc3OC)N(C=O)[C@H]3[C@@](O)(C(=O)OC)[C@H](OC(C)=O)[C@]5(CC)C=CCN6CC[C@]43[C@@H]65)C2)C1` [vincristine] + COc1cc2c(Oc3ccc4[nH]c(C)cc4c3F)ncnc2cc1OCCCN1CCCC1 [cediranib] (first compound 0.0005 µM, partner dose 2 µM), the cell count is 87.7%.

The compound `CC[C@]1(O)C[C@H]2CN(CCc3c([nH]c4ccccc34)[C@@](C(=O)OC)(c3cc4c(cc3OC)N(C=O)[C@H]3[C@@](O)(C(=O)OC)[C@H](OC(C)=O)[C@]5(CC)C=CCN6CC[C@]43[C@@H]65)C2)C1` [vincristine] + O=C(Nc1cccc(Cl)c1)Nc1ncc(CCNc2ncnc3ccsc23)s1 [SNS314] (first compound 0.0005 µM, partner dose 0.004 µM) gave a cell count of 29.2%.

The subject of the next test is SkMel2. The test is described as above. Conditions: library dose: standard library concentration; 72 h.
Consider `N#CC[C@H](C1CCCC1)n1cc(-c2ncnc3[nH]ccc23)cn1` [ruxolitinib] + O=C(O)c1ccc(-c2c[nH]c3ncc(-c4ccccc4)cc23)cc1C1CCCC1 [GSK650394] (first compound 5 µM, partner dose 0.8 µM), for which the cell count came out at 85.7%.

In turn, `CC[C@]1(O)C[C@H]2CN(CCc3c([nH]c4ccccc34)[C@@](C(=O)OC)(c3cc4c(cc3OC)N(C=O)[C@H]3[C@@](O)(C(=O)OC)[C@H](OC(C)=O)[C@]5(CC)C=CCN6CC[C@]43[C@@H]65)C2)C1` [vincristine] + OCCn1cc(-c2cnc3nnn(Cc4ccc5ncccc5c4)c3n2)cn1 [PF04217903] (first compound 0.0005 µM, partner dose 5 µM) came in with a cell count of 92.1%.

In turn, `Cc1cc(Nc2cc(N3CCN(C)CC3)nc(Sc3ccc(NC(=O)C4CC4)cc3)n2)n[nH]1` [Tozasertib] + CC1(C)NC(=O)N(c2ccc([N+](=O)[O-])c(C(F)(F)F)c2)C1=O [nilutamide] (first compound 0.03 µM, partner dose 5 µM) had a cell count of 93.3%.

The compound `Cc1cc(Nc2cc(N3CCN(C)CC3)nc(Sc3ccc(NC(=O)C4CC4)cc3)n2)n[nH]1` [Tozasertib] + NC(=O)Nc1cc(-c2cccc(F)c2)sc1C(=O)N[C@H]1CCCNC1 [AZD7762] (first compound 0.03 µM, partner dose 0.1 µM) yielded a cell count of 72.7%.

As for `Cc1cc(Nc2cc(N3CCN(C)CC3)nc(Sc3ccc(NC(=O)C4CC4)cc3)n2)n[nH]1` [Tozasertib] + CN(NC(=O)CC(=O)NN(C)C(=S)c1ccccc1)C(=S)c1ccccc1 [STA4783] (first compound 0.03 µM, partner dose 0.03 µM), the cell count amounted to 77.1%.

Turning to `Cc1cc(Nc2cc(N3CCN(C)CC3)nc(Sc3ccc(NC(=O)C4CC4)cc3)n2)n[nH]1` [Tozasertib] + C=CCn1c(=O)c2cnc(Nc3ccc(N4CCN(C)CC4)cc3)nc2n1-c1cccc(C(C)(C)O)n1 [MK1775] (first compound 0.03 µM, partner dose 0.1 µM), the cell count is 78.8%.

`Cc1cc(Nc2cc(N3CCN(C)CC3)nc(Sc3ccc(NC(=O)C4CC4)cc3)n2)n[nH]1` [Tozasertib] + Cc1ccc(NC(=O)c2cccc(N(C)C)c2)cc1NC(=O)c1ccc(O)cc1 [ZM336372] (first compound 0.03 µM, partner dose 10 µM) registered a cell count of 75.2%.

Compound `CC[C@]1(O)C[C@H]2CN(CCc3c([nH]c4ccccc34)[C@@](C(=O)OC)(c3cc4c(cc3OC)N(C=O)[C@H]3[C@@](O)(C(=O)OC)[C@H](OC(C)=O)[C@]5(CC)C=CCN6CC[C@]43[C@@H]65)C2)C1` [vincristine] + C[C@@H]1CCN(C(=O)CC#N)C[C@@H]1N(C)c1ncnc2[nH]ccc12 [CP690550] (first compound 0.0005 µM, partner dose 5 µM) showed a cell count of 69%.

In the case of `Cc1cc(Nc2cc(N3CCN(C)CC3)nc(Sc3ccc(NC(=O)C4CC4)cc3)n2)n[nH]1` [Tozasertib] + CC(C)(C)c1cnc(CSc2cnc(NC(=O)C3CCNCC3)s2)o1 [SNS-032] (first compound 0.03 µM, partner dose 0.05 µM), the cell count stood at 68.6%.

As to `CC[C@]1(O)C[C@H]2CN(CCc3c([nH]c4ccccc34)[C@@](C(=O)OC)(c3cc4c(cc3OC)N(C=O)[C@H]3[C@@](O)(C(=O)OC)[C@H](OC(C)=O)[C@]5(CC)C=CCN6CC[C@]43[C@@H]65)C2)C1` [vincristine] + C=CCn1c(=O)c2cnc(Nc3ccc(N4CCN(C)CC4)cc3)nc2n1-c1cccc(C(C)(C)O)n1 [MK1775] (first compound 0.0005 µM, partner dose 0.1 µM), the cell count is 27.1%.

`CC[C@]1(O)C[C@H]2CN(CCc3c([nH]c4ccccc34)[C@@](C(=O)OC)(c3cc4c(cc3OC)N(C=O)[C@H]3[C@@](O)(C(=O)OC)[C@H](OC(C)=O)[C@]5(CC)C=CCN6CC[C@]43[C@@H]65)C2)C1` [vincristine] + Cn1cncc1[C@@](N)(c1ccc(Cl)cc1)c1ccc2c(c1)c(-c1cccc(Cl)c1)cc(=O)n2C [tipifarnib] (first compound 0.0005 µM, partner dose 0.05 µM): the cell count came to 50.5%.

With `N#CC[C@H](C1CCCC1)n1cc(-c2ncnc3[nH]ccc23)cn1` [ruxolitinib] + NCC(=O)Nc1ccc(-n2nc(C(F)(F)F)cc2-c2ccc3c(ccc4ccccc43)c2)cc1 [OSU03012] (first compound 5 µM, partner dose 5 µM), the cell count was 39.6%.

Turning to `N#CC[C@H](C1CCCC1)n1cc(-c2ncnc3[nH]ccc23)cn1` [ruxolitinib] + CC(C)(C)c1cnc(CSc2cnc(NC(=O)C3CCNCC3)s2)o1 [SNS-032] (first compound 5 µM, partner dose 0.05 µM), the cell count was 87.2%.

`CC[C@]1(O)C[C@H]2CN(CCc3c([nH]c4ccccc34)[C@@](C(=O)OC)(c3cc4c(cc3OC)N(C=O)[C@H]3[C@@](O)(C(=O)OC)[C@H](OC(C)=O)[C@]5(CC)C=CCN6CC[C@]43[C@@H]65)C2)C1` [vincristine] + Cc1cc(N2CCOCC2)cc2[nH]c(-c3c(NC[C@@H](O)c4cccc(Cl)c4)cc[nH]c3=O)nc12 [BMS536924] (first compound 0.0005 µM, partner dose 1 µM) displayed a cell count of 20.3%.

The compound `CC[C@]1(O)C[C@H]2CN(CCc3c([nH]c4ccccc34)[C@@](C(=O)OC)(c3cc4c(cc3OC)N(C=O)[C@H]3[C@@](O)(C(=O)OC)[C@H](OC(C)=O)[C@]5(CC)C=CCN6CC[C@]43[C@@H]65)C2)C1` [vincristine] + CC(C)(C)c1cnc(CSc2cnc(NC(=O)C3CCNCC3)s2)o1 [SNS-032] (first compound 0.0005 µM, partner dose 0.05 µM) registered a cell count of 75%.

(Values after the supplement of paper PMC4604168 (melanoma cell lines).)
